Hit rate of the full screen: of about 310,000 compounds, about 14,000 (4.5%) showed an effect of 50% or more. The effect is printed as a negative number. The list shows a part of the results.
Target: human ether-à-go-go-related gene (hERG) potassium channel (human, UniProt Q12809)
Test: primary screen, population patch clamp on CHO cells stably expressing hERG
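Further: peak tail current of the secondary pulse compared with the same well before compound.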

Chain of human ether-à-go-go-related gene (hERG) potassium channel (Q12809 whole entry, looked up): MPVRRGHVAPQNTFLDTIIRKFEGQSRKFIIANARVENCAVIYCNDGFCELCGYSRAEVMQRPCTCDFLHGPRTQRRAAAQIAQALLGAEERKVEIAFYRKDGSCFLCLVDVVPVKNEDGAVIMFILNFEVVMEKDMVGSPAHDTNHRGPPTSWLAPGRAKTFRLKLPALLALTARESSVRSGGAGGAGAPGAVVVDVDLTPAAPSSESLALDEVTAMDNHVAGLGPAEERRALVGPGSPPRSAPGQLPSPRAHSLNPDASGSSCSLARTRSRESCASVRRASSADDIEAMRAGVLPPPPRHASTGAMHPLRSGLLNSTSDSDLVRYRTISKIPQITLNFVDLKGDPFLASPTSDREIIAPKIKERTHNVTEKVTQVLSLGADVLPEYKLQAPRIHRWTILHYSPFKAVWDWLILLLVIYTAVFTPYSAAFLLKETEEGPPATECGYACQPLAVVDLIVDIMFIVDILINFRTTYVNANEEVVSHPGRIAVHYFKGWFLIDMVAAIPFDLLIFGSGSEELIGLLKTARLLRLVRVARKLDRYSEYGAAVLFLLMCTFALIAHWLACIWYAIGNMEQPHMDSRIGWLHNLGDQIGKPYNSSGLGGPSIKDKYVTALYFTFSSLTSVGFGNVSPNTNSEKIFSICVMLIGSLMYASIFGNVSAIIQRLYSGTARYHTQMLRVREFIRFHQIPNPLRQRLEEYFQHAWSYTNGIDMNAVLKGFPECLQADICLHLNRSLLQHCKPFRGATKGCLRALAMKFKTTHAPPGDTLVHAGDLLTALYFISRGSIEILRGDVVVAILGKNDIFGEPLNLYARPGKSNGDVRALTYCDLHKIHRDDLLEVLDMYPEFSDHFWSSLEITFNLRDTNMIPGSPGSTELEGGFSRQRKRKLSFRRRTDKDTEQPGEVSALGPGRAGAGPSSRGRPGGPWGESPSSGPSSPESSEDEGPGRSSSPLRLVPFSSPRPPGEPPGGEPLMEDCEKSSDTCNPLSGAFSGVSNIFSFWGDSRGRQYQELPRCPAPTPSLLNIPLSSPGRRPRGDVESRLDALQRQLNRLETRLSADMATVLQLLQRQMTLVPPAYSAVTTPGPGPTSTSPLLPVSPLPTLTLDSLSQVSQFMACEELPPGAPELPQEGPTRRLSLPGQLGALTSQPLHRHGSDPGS

SMILES | hERG current change (%, negative = inhibition) at 10uM [%]
COc1ccccc1CN(CC(=O)NCc1ccc2c(c1)OCO2)C(=O)c1csnn1 | -34.2
O=C(CSc1nnc(-c2cccnc2)n1-c1ccc(F)cc1)NCc1ccc2c(c1)OCO2 | -72.5
COc1ccc(-n2sc3c(c2=S)-c2cc(OC)ccc2NC3(C)C)cc1 | 1.92
CCCOc1ccc(OCCN2CCCC(C)C2)cc1.O=C(O)C(=O)O (stereo not drawn) | -52.2
COc1cccc(C(c2nnnn2Cc2ccco2)N2CCN(Cc3ccccc3)CC2)c1OC.Cl (stereo not drawn) | -40.3
Cc1ccc(C(=O)COc2ccccc2-c2ccccc2)cc1 | -2.78
Cn1c(C2CC(=O)N(Cc3ccccc3)C2)nc2ccccc21 (stereo not drawn) | 0.513
COc1ccccc1N1CCNC(C)C1=O.Cl (stereo not drawn) | 13.6
Cc1ccc(C(=O)Nc2cccc3cccnc23)cc1Br | 2.61
O=C(O)c1ccc(CSC2CCCCC2)cc1 | 23.4
Cc1ccc(-n2[nH]c(C)c(C=NCc3ccncc3)c2=O)cc1 | -54.5
Cc1n[nH]c(=O)nc1NCc1ccco1 | 18.3
Cc1ccc(NC(=O)c2c(NC(=O)CCC(=O)O)sc3c2CCCCC3)cc1 | 0.343
CC(=C/c1ccc(C(C)C)cc1)/C=N/NC(=O)c1ccncc1 | 0.164
CC(C)CCN(CCC(C)C)CC(O)Cn1c2ccccc2c(=O)c2ccccc21 (stereo not drawn) | -22
CCn1c(SCC(=O)Nc2cccc(NC(=O)c3ccco3)c2)nnc1-c1cccs1 | -79.8
Cc1noc(C)c1C(=O)NCCc1ccccc1 | 0.324
COCc1nc2ccccc2n1Cc1ccc(Br)cc1 | -26.5
COc1ccccc1OCCCc1c(C)n[nH]c1C | -2.83
COC(=O)c1cc(OC)c(OC)cc1NC(=O)CCC1CCCC1 | 6.85
Cc1ccc(C(=O)C2=C(O)C(=O)N(Cc3ccccc3)C2c2cccnc2)o1 (stereo not drawn) | 8.29
O=C(Nc1ccc2c(c1)CCC2)Nc1ccccc1Cl | 6.96
CSCC[C@H](NC(=O)N1CCn2c1nc1ccccc12)C(=O)NC1CC1 | 16.4

SMILES | hERG current change (%, negative = inhibition) at 10uM [%]
CCOC(=O)N1CCC(NC(=O)Cn2nc(Cc3ccncc3)c3ccccc3c2=O)CC1 | 10
Cc1nc([N+](=O)[O-])c(C(=O)OCc2ccccc2Br)n1C | -16.4
CN(C)c1ccc(C(=S)N2CCNCC2)cc1 | 8.76
CC(=O)Nc1cc(-c2nn(CC(=O)N3CCCCC3)c(=O)c3ccccc23)ccc1N1CCOCC1 | 2.8
COC(=O)C1=C(N)OC2=C(C(=O)CCC2)C1c1cccnc1 (stereo not drawn) | 4.97
CCCOc1ccc(C(=O)NCC(c2ccco2)N(C)C)cc1 (stereo not drawn) | -36.4
CCOc1cc(CNCc2ccncc2)cc(Br)c1OCc1ccc(F)cc1.Cl | -46.6
CC(=O)N(Cc1ccc(F)cc1)c1cccc(C)c1C | 4.83
Cc1ccc([N+](=O)[O-])cc1S(=O)(=O)NCCc1c(C)[nH]c2c(C)cccc12 | 2.85
Cc1ncc([N+](=O)[O-])n1CC(=O)Nc1ccc(OC(F)(F)Cl)cc1 | 20.1
O=C(N/N=C/c1cc(Br)ccc1O)Nc1ccccc1 | 24.3
CCCCN1C(=O)c2ccccc2C1C(=O)NC1CCCC1 (stereo not drawn) | -1.36
CSc1nc(-c2ccccc2)nc(N2CCCC2)c1C(C)=O | -10.8
CCOC(=O)c1c(C)[nH]c(C(=O)CSc2nccc(C)n2)c1C | 22.9
O=C(CN1CC[n+]2c(-c3ccccc3)csc21)c1ccc(Br)cc1.[Br-] | -40.6
O=C(Nc1nnc(C2CCCCC2)s1)c1ccc(Br)s1 | 1.12
CCNC(=O)COc1cc(C)c(Br)c(C)c1 | 0.726
O=C(NNS(=O)(=O)c1ccc2ccccc2c1)c1cc(-c2ccccn2)nc2ccccc12 | 12.7
CNC(=O)NC(=O)CSc1nc2cc(C(=O)OC)ccc2c(=O)n1-c1ccccc1 | 6.03
O=C(NNS(=O)(=O)c1ccc(Br)cc1)c1sccc1-n1cccc1 | 3.22
COc1ccc(-c2csc(N(CCCN(C)C)C(=O)c3ccccc3C)n2)cc1.Cl | -75.1
O=C(CSc1nc(-c2ccccc2)cs1)NC(=O)NCc1ccco1 | -6.42
CN(C)/C=C(\C#N)C(=O)Nc1ccc(O)cc1F | 19

SMILES | hERG current change (%, negative = inhibition) at 10uM [%]
CCC1(CC)Cc2ccccc2-c2nc(CN(C)C)[nH]c(=O)c21 | -8.91
CC(NC(=O)/C(C#N)=C/c1cn[nH]c1-c1ccccc1)c1ccccc1 (stereo not drawn) | -18.5
O=C1C=C(Nc2ccc(Cl)cc2)CC(c2ccc(Cl)cc2)C1 (stereo not drawn) | -2.27
COc1ccc2ccc(O)c(CN(C)CC(=O)Nc3ccccc3C(F)(F)F)c2c1 | 8.1
CCC(CC)C(=O)c1c[nH]c(C(=O)NCc2ccc(F)cc2)c1 | -12.3
O=c1[nH]nc(CNc2ccc(C(F)(F)F)cc2)c2ccccc12 | 1.92
CCc1ccccc1NC(=O)/C(C#N)=C/c1ccc(Sc2ccccc2)o1 | -1.81
CC(=O)Nc1ccc(NC(=O)[C@H](C)NC(=O)c2ccco2)cc1 | 25.1
O=c1[nH]c(CSc2nnc(COc3ccccc3)n2-c2ccccc2)nc2ccccc12 | -4.92
Cc1ccc(CC(=O)Nc2ccc(C(=O)N3CCCCC3)cc2)cc1 | 10.8
O=C(Nc1ccc(Cl)cc1)C1C2CCCCC21 (stereo not drawn) | 13.8
Cc1cccc(CCNC(=O)CCNS(=O)(=O)c2cc(Br)cnc2N)c1 | -5.7
CCOC(=O)CC(=O)CSc1ncnc2c1nnn2-c1ccc(F)cc1 | 14.2
COc1ccc(NC(=O)CC2Nc3cc(C)c(C)cc3NC2=O)c([N+](=O)[O-])c1 (stereo not drawn) | 11.9
COc1ccc(CNC(=O)CSc2cc(=O)n(C)c3ccccc23)cc1 | -15
CC(OC(=O)c1nsc(Cl)c1Cl)C(=O)NC1CCCCC1 (stereo not drawn) | 16.4
Cl.NCC(O)(c1ccc(Cl)cc1)c1ccc(Cl)cc1 | -5.47
COc1ccc(NC(=O)N2CCC(NC(=O)c3ccco3)CC2)cc1 | 3.68
O=C(CNC(=O)c1ccc(Br)o1)NCc1ccc(Cl)cc1 | -3.47
COC(=O)C1CCC(=S)N1C(=O)c1ccccc1 (stereo not drawn) | 11.7
COc1ccc(NCc2ccc([N+](=O)[O-])s2)cc1 | -13.6
Cc1nc(/N=C(\N)NC(=O)NC2CCCCC2)nc2ccccc12 | -21
Cc1nc(S/C(=C/c2ccc(OCc3ccc(C(=O)O)cc3)cc2)C(=O)O)n[nH]1 | 22.6

SMILES | hERG current change (%, negative = inhibition) at 10uM [%]
O=C(N/N=C/c1c[nH]c2ccccc12)c1cc(Br)ccc1O | 8.48
CC(C(=O)N1CCCCCC1)N(c1ccc(Cl)cc1)S(C)(=O)=O (stereo not drawn) | 22
COc1cccc(CN2C(=O)CCC2(C)C(=O)NC2CCCC2)c1 (stereo not drawn) | 2.48
CC1CCN(CCC(=O)Nc2ccc(Br)cc2)CC1.Cl | -54.6
COc1ccc(Cl)cc1NC(=O)C1CC(=O)N(c2ccc(F)cc2)C1 (stereo not drawn) | 4.41
NC(=O)C1CCCN(C(=O)NC2CCCCC2)C1 (stereo not drawn) | -2.48
COc1ccc2cc(C(c3nnnn3C3CCCC3)N3CCCCCC3)c3nnnn3c2c1 (stereo not drawn) | 15.9
COCCn1c(-c2ccco2)csc1=Nc1cccnc1.Cl | -3.9
CC(Oc1ccc(Cl)cc1)C(=O)Nc1ccccc1C(=O)N1CCOCC1 (stereo not drawn) | -13.5
COc1ccc(C(=O)c2ccc(CC(=O)O)s2)cc1 | 7.57
Nc1ccc(C(=O)N/N=C\C=C\c2cccc([N+](=O)[O-])c2)cc1 | 7.97
CCOC(=O)CSc1nnc(COc2cccc(C)c2)o1 | 0.751
Cc1ccc(-c2nnn(CC(=O)N(c3ccccc3F)C(C(=O)NC3CCCC3)c3ccco3)n2)o1 (stereo not drawn) | 2.59
CC(NC(=O)c1cccc(F)c1)C(c1cccs1)N1CCN(C)CC1 (stereo not drawn) | 2.52
Cc1cccc(C(=O)NC(NCc2ccco2)C(Cl)(Cl)Cl)c1 (stereo not drawn) | 0.591
Cc1cccc(N(C)C(=O)c2coc(=O)c3ccccc23)c1 | 13.1
O=C(NCc1ccc2c(c1)OCO2)c1nnc(Cc2ccc(F)cc2)o1 | -1.56
C/C(=N\Nc1ccc(Cl)c(C(=O)O)c1)c1ccc(N2CCOCC2)cc1 | 8.13
Cc1ccc(/C=C/C(=O)Nc2ccc(O)c3c(=O)cc(-c4ccccc4Cl)oc23)cc1 | 10.5
OCc1ccc(-c2nn(Cc3ccccc3)c3ccccc23)o1 | -7.85
CCc1ccc(C2c3[nH]c4ccccc4c3CCN2C(=O)c2cc[n+]([O-])cc2)cc1 (stereo not drawn) | -4.19
